# Screen size: about 410,000 compounds; about 6,400 (1.6%) were called active. This list was built around the results that the source calls inconclusive (neither active nor inactive); the mix of calls is not that of the screen. Calls come from the whole dose curve; as a rule, active = well fitted inhibition curve with a large enough effect; inconclusive = small, poorly fitted or top-dose-only effect; inactive = no such curve, though single readings can be large or run the other way. No potency is given beside an inconclusive call; the fits are too rough.
# Target: Glucagon-like peptide 1 receptor (Homo sapiens) (UniProt P43220)
# Experiment: qHTS of GLP-1 Receptor Inverse Agonists (Inhibition Mode); note: nearly all actives have a fitted effect of over 55% in size
# Settings: HEK293 GLP-1R CRE-luciferase, luminescence, 24 h, GLP-1R form is constitutively active; activity change, negative = inhibition: at 38.3 µM (top of the series) unless noted
# How it was run: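 Readout was luciferase luminescence, measured 12 min after detection reagent at room temperature. Beforehand, GLP-1R reporter HEK293 cells had sat 12 h, then received compounds for 24 hr at 37 deg C.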
# % is set by controls: 0 for no effect and ±100 for the full control effect; potency is the fitted concentration of half-maximal effect; tags give direction and shape of the fitted curve.
# Chain of UniProt P43220 (P43220 whole entry, looked up): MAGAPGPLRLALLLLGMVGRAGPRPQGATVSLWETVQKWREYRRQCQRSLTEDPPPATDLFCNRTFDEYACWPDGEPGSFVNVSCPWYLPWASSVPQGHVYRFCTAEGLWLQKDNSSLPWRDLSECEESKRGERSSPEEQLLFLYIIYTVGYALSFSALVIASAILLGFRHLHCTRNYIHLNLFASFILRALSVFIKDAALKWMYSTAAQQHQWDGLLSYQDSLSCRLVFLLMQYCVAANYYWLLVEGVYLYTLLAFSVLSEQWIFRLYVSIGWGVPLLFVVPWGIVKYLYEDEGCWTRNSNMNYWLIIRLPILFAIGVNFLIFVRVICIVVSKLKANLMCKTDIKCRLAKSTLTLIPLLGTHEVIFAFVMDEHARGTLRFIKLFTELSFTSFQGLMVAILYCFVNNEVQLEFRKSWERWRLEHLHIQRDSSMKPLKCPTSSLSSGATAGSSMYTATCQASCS
SMILES,"activity change, negative = inhibition",Potency
COc1ccc(N(CC(O)CN2CCCCC2)S(=O)(=O)c2ccc(C)cc2)cc1 (stereo not drawn),inactive: 0%,–
CN(c1ccccc1)S(=O)(=O)c1ccc(NC(=O)C2CC2)cc1,–,"inconclusive [inhibitor, partial curve, poor fit]"
C/C(CC1(O)C(=O)N(Cc2ccccc2)c2ccccc21)=N\O (stereo not drawn),–,"inconclusive [inhibitor, full curve, poor fit]"
CCN1C2=NCCCN2c2cc(C)c(C)cc21,inactive: -15.6%,–
Cc1occc1C(=O)NC(C)C(C)(C)C (stereo not drawn),–,"inconclusive [inhibitor, partial curve, poor fit]"
Cc1cccc2c1-c1sc(C(=O)NCCCN3CCC(C)CC3)cc1CO2,–,"inconclusive [inhibitor, partial curve, poor fit]"
CCn1c(=O)c(C(=O)CN2CCCc3ccccc32)c(N)n(Cc2ccccc2)c1=O,–,"inconclusive [inhibitor, full curve, poor fit]"
CC(C)c1cnc2c(c1SCC(=O)c1ccc(Cl)cc1)c(=O)n(C)c(=O)n2C,–,"inconclusive [inhibitor, partial curve, poor fit]"
FC(F)Oc1ccc(-c2csc(=Nc3cccnc3)n2CC2CCCO2)cc1 (stereo not drawn),–,"inconclusive [inhibitor, single point]"
O=C(NCCCn1ccnc1)c1cc(-c2ccc(Cl)cc2)nc2ccccc12,–,"inconclusive [inhibitor, single point]"
O=C(CSc1nnc(-c2ccc(F)cc2)c2ccccc12)Nc1cccc(Cl)c1,–,"inconclusive [inhibitor, partial curve, poor fit]"
COc1ccc(/C=N/NC(=O)Cc2cccs2)cc1,inactive: -0.397%,–
Cc1ccc(C(=O)NNC(=O)c2cccc(S(=O)(=O)N3CCN(c4ccccc4)CC3)c2)cc1,inactive: 10.4%,–
CCOc1ccc2c(c1)c(N=NC(N)=S)c(O)n2C,inactive: -1.18%,–
CC(=O)c1sc(NC(=O)c2ccccc2F)nc1C,–,"inconclusive [inhibitor, partial curve, poor fit]"
CC(C)(C)OC(=O)N1CCC(c2c(C(=O)NCCc3ccsc3)cnn2-c2ccc(F)cc2F)CC1,–,"inconclusive [inhibitor, partial curve, poor fit]"
CCOC(=O)CSC1=C(C#N)C(c2ccc(OC)cc2)C2=C(CC(C)(C)CC2=O)N1 (stereo not drawn),–,"inconclusive [inhibitor, single point]"
CCC(=O)NC(=S)Nc1cccc(NC(=O)c2ccccc2)c1,–,"inconclusive [inhibitor, partial curve, poor fit]"
